# In paper PMC6212790:
# The other results are listed elsewhere or left out. At the low end of the ranking the order means little.
# Target: T1, GST-Rok-C97-191 (UniProt O34857)
# T1 sequence: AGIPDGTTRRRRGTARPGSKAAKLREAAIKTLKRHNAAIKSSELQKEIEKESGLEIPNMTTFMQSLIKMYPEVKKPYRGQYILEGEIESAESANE
# Test: protein binding microarray;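 also: rank score from −0.5 (least bound) to 0.5 (best bound)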
# Settings: Rok is a gene silencer of Bacillus subtilis; high values mean tight binding; most listed sequences are background and not binding sites; double strand, one strand shown
row,Sequence,binding signal [E-score]
1,ATCTAAGG,0.0861
2,ATTAAAGC,0.244
3,TCGTCGCA,-0.0233
4,ACTGGTCT,-0.0161
5,AATCCTGG,-0.088
6,AACACTTG,0.11
7,CCATGGAC,-0.136
8,ACATGTAC,0.331
9,ACGGCAAT,0.0959
10,ATGTTCTG,-0.00292
11,CGTGGCTC,-0.0916
12,ATCTAAAT,0.0834
13,GAAAGAAC,0.0785
14,CTACGACC,-0.01
15,GCCATTTA,-0.19
16,AAGTAAAG,0.104
17,ACACACCG,0.109
18,ACAACCCG,-0.0914
19,GTTAGCTA,0.292
20,ATGTTTCC,0.0484
21,AATTGAAA,0.0679
22,AGCAGCCG,-0.142
23,GACGCTAC,0.107
24,CATGTTCA,0.0541
25,AATTAGAC,0.0959

row,Sequence,binding signal [E-score]
1,GAAACTAA,0.313
2,ATGCGTAG,-0.101
3,CACCCGAC,-0.282
4,AACGTCGT,-0.00222
5,AGCCAACC,-0.074
6,CTGGTGTC,-0.187
7,GGCAAAAA,-0.167
8,TGTCTGAA,-0.259
9,CTAGCACA,0.1
10,GGTGCGGA,-0.0626
11,CCTACTTC,0.0914
12,TAGCCGCA,-0.0343
13,CACTCCAA,-0.119
14,ACTAGGGG,-0.0799
15,CGGCCGAA,-0.272
16,CAATCTGG,0.0188
17,AGTGACTC,-0.0959
18,TCACTAGA,0.155
19,ATTGCCCG,-0.0517
20,CGCCCGTA,-0.0928
21,GCCACAGA,-0.136
22,GAATTGAA,0.154
23,GCTGCGAC,-0.07
24,AAGTCAAT,0.125
25,CCCACTAG,0.0169

row,Sequence,binding signal [E-score]
1,TGGAGTAA,0.0157
2,ACCATTAT,0.171
3,CCCATGCA,-0.246
4,AACTGCAT,-0.0824
5,ACGCTTAT,0.134
6,GAAAGTGC,-0.0315
7,GTACTTTA,0.344
8,GAACAGGA,-0.0727
9,ACGACGCA,0.0773
10,ACGCAATG,-0.049
11,ACTTCGCA,-0.00777
12,AGTCATTC,0.0846
13,AATTTTGT,0.0867
14,CCCTTGGA,-0.298
15,GTACCTAA,0.155
16,AACTACGT,0.338
17,CGGACGGC,-0.375
18,ACCTCTCT,-0.113
19,AGTTATGA,0.214
20,CCTTCCCG,-0.31
21,ATTCAAGG,-0.00382
22,CAGAGATG,-0.293
23,GTTTATCA,0.0853
24,GCCGCACA,-0.321
25,ATTTTCAC,0.0493

row,Sequence,binding signal [E-score]
1,CCAAATGA,-0.0639
2,AAGGCCGA,-0.247
3,CTAACTTC,0.114
4,ACTATGGC,-0.0248
5,CAACTCTC,-0.00144
6,CACCTGCC,-0.392
7,CTCTCCCC,-0.275
8,CCCCGTGC,-0.205
9,CTGGGTCC,-0.309
10,GACTACCA,0.141
11,CCGTAGAG,-0.0884
12,TCCTCTAA,-0.0186
13,AATCTCAT,0.155
14,CACGCCTG,-0.0358
15,CAGGATAA,0.076
16,CGTAAACG,-0.0686
17,TCCCGGGA,-0.311
18,ACTTTCTG,0.144
19,ATAGGTCA,0.195
20,CCGGAGCC,-0.222
21,CTTGCAGA,-0.115
22,CCCCTGGC,-0.381
23,GAAATTAC,0.359
24,AAACTTCA,0.0505
25,AGGTCTAT,0.15

row,Sequence,binding signal [E-score]
1,ACCTCGTA,0.113
2,CAGACTAG,-0.0434
3,ATAGCATA,0.263
4,GAGAAAGA,0.0766
5,ATGAGTCG,0.0198
6,GCCACTTA,-0.117
7,AGTAGGTC,0.159
8,CGACAGAG,-0.117
9,TCGGCTCA,-0.16
10,CGATGTGC,-0.223
11,GGGCAATA,-0.0561
12,CGGGCAAA,-0.0468
13,ATACAAAT,0.337
14,CCGCAGCC,-0.343
15,ATTGAACA,-0.0938
16,AACTCGGT,0.225
17,CCCAGTGA,-0.0946
18,AAGGTGAG,-0.13
19,AACTTATT,0.159
20,AATTCCGA,0.166
21,CAGGCTAG,-0.174
22,GCTTGGGA,-0.215
23,AAGGTCGC,-0.255
24,GGCAACCA,-0.202
25,GGAAGTTA,0.154

row,Sequence,binding signal [E-score]
1,AGTAAATG,0.205
2,CGTCGGTA,-0.0251
3,AAGATACG,0.137
4,AAAACTTT,-0.0026
5,GAAGGGGC,-0.24
6,TAGAGCAA,-0.0616
7,AGAATTTC,0.255
8,GTTTATGA,0.128
9,ATCGGCTC,-0.204
10,AGATCCAA,0.00481
11,CAGTTCCA,0.0296
12,CAAATCCC,-0.191
13,CCACTTGC,-0.185
14,TAGAGATA,0.114
15,ACCAAGAT,0.202
16,GGCATTCA,-0.0675
17,CCTGCGAG,-0.157
18,AAAATTAT,0.239
19,CTAATTCA,0.168
20,GGTTGTGA,-0.0619
21,AATAAAGG,-0.0679
22,AAGATAAA,0.314
23,AGGCTCCA,-0.266
24,GAGGCCCC,-0.362
25,CTATTAAC,0.201

row,Sequence,binding signal [E-score]
1,CACCAGGA,-0.0629
2,ACCTGGCG,-0.137
3,AACCAGAC,-0.227
4,TGCAGACA,-0.0615
5,TCCTTAAA,-0.108
6,CCCCCGTC,-0.191
7,AACCATAA,0.0116
8,CTAAATAG,0.194
9,CCGTAGCC,-0.136
10,ATCTAGCG,0.202
11,AGCGTAGA,0.298
12,AGTACGAA,0.204
13,ATGTGGGA,0.0284
14,CTCGGTTA,-0.0509
15,CCTACGGA,0.00341
16,GTGCGATA,-0.0151
17,CAACAGTC,-0.174
18,CCTAAGTC,-0.0873
19,AAGTTCCC,-0.0517
20,GCTATAAA,0.217
21,CATGTCCA,0.132
22,AATTCCAA,0.0704
23,TGCTAAAA,0.177
24,GCAAATCC,-0.0218
25,AGGGCCCA,-0.232

row,Sequence,binding signal [E-score]
1,TAATTCCA,0.207
2,AGCTCTCC,-0.194
3,AAAGTTCG,0.0847
4,CTTACAGC,0.0847
5,ATTCTAGA,0.245
6,AGATACAA,0.243
7,AGGGACAC,-0.294
8,AACGCCTT,-0.0323
9,ATGTAGGA,0.201
10,AGGAATTG,0.187
11,ACTACTAC,0.419
12,GTACTGGA,-0.0299
13,AATGCGAT,0.0443
14,TTAGGCAA,-0.13
15,AGCCACGA,-0.0279
16,TAACTTAA,0.182
17,AATGTGCG,-0.0696
18,CTTCCTTC,-0.24
19,AAGTACAA,0.349
20,GCTCCCCC,-0.388
21,CATACTCC,-0.0538
22,CTCGGGAC,-0.0122
23,CAGACTGG,-0.192
24,AAACCATA,0.152
25,GTGAACCA,-0.0676

row,Sequence,binding signal [E-score]
1,ACAGGGGT,0.0522
2,CTTTCAGA,-0.128
3,AGTGAAAA,0.0326
4,ATCCGCCG,-0.183
5,CTCCGGGC,-0.249
6,AGGATCTG,-0.208
7,ACTGATGA,-0.147
8,CGTCGCAG,-0.0739
9,GGAGGCCA,-0.274
10,GACGAGGA,-0.147
11,AGTTGTTC,0.0102
12,AACAAAAT,0.158
13,CTAGAGCA,-0.0383
14,GAAGTCCC,-0.215
15,GTGCCAAC,0.0115
16,GGGGGGTA,-0.168
17,GAAACGTA,0.139
18,GAATGGTA,0.39
19,AGCGCAGG,-0.149
